# Measured values as given in PubChem BioAssay AID624173 (National Center for Advancing Translational Sciences (NCATS), 2012).
# Out of some 410,000 compounds screened, about 490 (0.12%) were called active. Inconclusive results, whose numbers are uncertain, are shown with a selection of clear calls. Calls come from the whole dose curve; as a rule, active = well fitted inhibition curve with a large enough effect; inconclusive = small, poorly fitted or top-dose-only effect; inactive = flat fitted curve, though single readings scatter. A potency beside an inconclusive call is a rough fit, not a confirmed value.
# Target: pyruvate kinase (Trypanosoma brucei) (UniProt Q57TT1)
# Assay: qHTS of Trypanosoma Brucei Inhibitors; note: nearly all actives have a fitted effect of over 50% in size
# Settings: TbPYK enzyme, Kinase-Glo Plus ATP luminescence, 45 min; series mostly up to 76.8 µM; activity, negative = inhibition: at the top concentration
# Method in brief: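 T. brucei PYK with substrate was exposed to pin-transferred compounds across a concentration series, then started with 130 uM ADP (final). After 45 min at room temperature, Kinase-Glo Plus luminescence was read, normalized and curve-fitted.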
# % is set by controls: 0 for no effect and ±100 for the full control effect; potency is the fitted concentration of half-maximal effect; tags give direction and shape of the fitted curve.
SMILES,Potency,"activity, negative = inhibition"
O=C1N(Cc2cccc(Cl)c2)C[C@@H]2C[C@@H](c3ccccn3)N3CCC[C@@]123,"inconclusive: 35.5 µM [inhibitor, partial curve, poor fit]",–
CCN(CC)c1ccc(NC(=O)C2=CCN(S(=O)(=O)c3ccc(F)cc3)CC2)c(C)c1,"inconclusive: 39.8 µM [inhibitor, single point]",–
CCOC(=O)CNC(=O)CSc1nnc(-c2ccccc2)n1Cc1ccco1,"inconclusive: 25.1 µM [inhibitor, partial curve, poor fit]",–
CCOc1ccc(-c2cc(C(=O)NCC3CCCO3)c3ccccc3n2)cc1 (stereo not given),–,inactive: 0.725%
CCCCNC(=O)c1ccc(Cn2c(=S)[nH]c3c([nH]c4ccc(OC)cc43)c2=O)cc1,"inconclusive: 17.8 µM [inhibitor, partial curve, poor fit]",–
Oc1cccc(-c2nc3ccccc3s2)c1,"inconclusive: 28.2 µM [inhibitor, partial curve]",–
S=c1[nH]nc(-c2cnccn2)n1-c1ccccc1,"inconclusive: 31.6 µM [inhibitor, partial curve, poor fit]",–
CN(C)c1ccc(NC(=O)CCCc2ccccc2)cc1,"inconclusive: 39.8 µM [inhibitor, partial curve, poor fit]",–
O=C(CCNNC(=O)c1ccncc1)NCc1ccccc1,inactive,–
Cc1ccc(-n2c3nc(=O)[nH]c(=O)c-3cc3cc([N+](=O)[O-])ccc32)cc1,"inconclusive: 25.1 µM [inhibitor, single point]",–
COc1cc2c(cc1OC)C(C)N(C(=S)NC(=O)c1ccccc1)CC2 (stereo not given),"inconclusive: 12.6 µM [inhibitor, partial curve, poor fit]",–
COc1cccc(-c2sc3ccccc3c2-c2ccc(OCCN(C)C)cc2)c1,–,inactive: 0%
COc1ccc(Nc2ncccc2C(=O)Nc2ccccc2)cc1,"inconclusive: 28.2 µM [inhibitor, partial curve]",–
CCNc1nc(NCC)n2c(SCC(=O)Nc3ccc(CC)cc3)nnc2n1,"inconclusive: 15.8 µM [inhibitor, partial curve, poor fit]",–
S=c1[nH]nc(CCc2ccccc2)n1-c1ccccc1,"inconclusive: 2 µM [inhibitor, partial curve, poor fit]",–
O=C(Nc1nc2c(s1)CCCC2)c1ccc2ncsc2c1,–,inactive: -28.6%
COCCCNC(=O)c1cn(CC(C)C)c(=O)c2c1c1ccccc1n2C,"inconclusive: 14.1 µM [inhibitor, partial curve, poor fit]",–
Cc1ccc(-c2nn(-c3ccccc3)cc2CN(Cc2ccccc2)C(=O)CCC(=O)O)o1,"inconclusive: 50.1 µM [inhibitor, single point]",–
CCOc1ccc(NC(=O)CCC(=O)NNC(=O)COc2ccccc2C)cc1,"inconclusive: 50.1 µM [inhibitor, single point]",–
Cc1cccc(N2CCN(C(=O)c3ccc4nc(-c5ccco5)c(-c5ccco5)nc4c3)CC2C)c1 (stereo not given),–,inactive: 2.33%
CCCCCC(CC(=O)NO)C(=O)NC(C(=O)N1CCCC1CO)C(C)C (stereo not given),–,inactive: -11.4%
O=C(O)c1cc(N2N=C(C(F)(F)F)/C(=C/C=C/c3ccco3)C2=O)ccc1Cl,"inconclusive: 35.5 µM [inhibitor, single point]",–
S=c1[nH]nc(-c2ccccn2)n1/N=C/c1ccc(-c2ccccc2Br)o1,"inconclusive: 5.01 µM [inhibitor, partial curve, poor fit]",–

SMILES,Potency,"activity, negative = inhibition"
CCCCNC(=O)C1c2ccccc2OCC(=O)N1CCc1ccc(OC)c(OC)c1 (stereo not given),–,inactive: -2.63%
CSc1ccccc1NC(=O)CCS(=O)(=O)c1nc(-c2ccc3c(c2)OCO3)cc(C(F)(F)F)n1,"inconclusive: 39.8 µM [inhibitor, single point]",–
CCOc1c(Cl)cc(CNc2ccc(N3CCCC3)cc2)cc1OC,"inconclusive: 14.1 µM [inhibitor, partial curve]",–
CCC(C)NC(=O)C1(NC(=O)Nc2ccccc2)CCCCC1 (stereo not given),"inconclusive: 31.6 µM [inhibitor, partial curve, poor fit]",–
Cc1c(Br)c(-c2n[nH]c(=S)n2Cc2ccco2)nn1C,"inconclusive: 14.1 µM [inhibitor, partial curve]",–
N#CC(C#N)=C1C(=O)N(CCN2CCCCC2)c2ccccc21,–,inactive: -7.07%
O=C(N/N=C/c1cc(Br)c(Br)o1)c1ccc2c(c1)OCCO2,–,inactive: -6.61%
COC(=O)CSc1n[nH]c(=S)s1,"inconclusive: 39.8 µM [inhibitor, single point]",–
Cc1ccc(-c2noc(CCCC(=O)NC3CCCCC3)n2)cc1,–,inactive: 2.81%
COC1=C(OC)C(=O)C(Sc2ccc3ccccc3c2)=CC1=O,active: 1.78 µM,–
O=C(COc1ccccc1)NCc1n[nH]c(=S)n1-c1ccccc1,"inconclusive: 31.6 µM [inhibitor, partial curve, poor fit]",–
Cn1c(=NC(=O)CCl)sc2ccccc21,–,inactive: 1.66%
CCc1nnc2n1N=C(c1ccccc1)CS2,–,inactive: 1.12%
Cc1nc(=S)n(-c2ccccc2)[nH]1,"inconclusive: 0.891 µM [inhibitor, full curve, poor fit]",–
O=C(c1ccc(N2CCOCC2)cc1)N1CCCC(Nc2ccccc2)C1 (stereo not given),"inconclusive: 35.5 µM [inhibitor, single point]",–
c1ccc(C2=Nc3ccccc3OC2)cc1,–,inactive: -3.36%
Cn1c(-c2csc(-c3ccccc3)n2)n[nH]c1=S,"inconclusive: 7.94 µM [inhibitor, partial curve]",–
O=S(=O)(c1cccc(-c2n[nH]c(=S)n2-c2ccc(OC(F)(F)F)cc2)c1)N1CCOCC1,"inconclusive: 25.1 µM [inhibitor, partial curve, poor fit]",–
COc1cc(/C=N/n2cc(-c3ccccc3)[nH]c2=S)cc(OC)c1O,active: 1.12 µM,–
COc1cc2nc(CN(C)Cc3nc4ccccc4c(=O)[nH]3)[nH]c(=O)c2cc1OC,–,inactive: 4.06%
O=C(Nc1cc(S(=O)(=O)N2CCOCC2)ccc1N1CCCC1)c1ccc(Cl)cc1,"inconclusive: 10 µM [inhibitor, partial curve]",–
O=[N+]([O-])c1cc2ccccc2c(O)c1O,"inconclusive: 17.8 µM [inhibitor, partial curve, poor fit]",–
